The campaign covered roughly 48,000 compounds. About 1,200 (2.5%) were called active. Another 2% or so got no clear call; they are omitted.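 How the source made its calls: active means activation of at least 60% and not above a set upper limit (about 1 call in 100 departs from these limits); inconclusive means activation of 40% to 60%, or above that upper limit; inactive means activation under 40%.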 This is one part of the list.
Biological target: Probable G-protein coupled receptor 32 (Homo sapiens) (UniProt O75388)
Test: qHTS for Agonists of Human Resolvin D1 Receptor DRV1; further: 0% is about no effect
Conditions: CHO-K1 GPR32 beta-arrestin PathHunter luminescence, 90 min; at 76.9 µM; stronger effect = higher value; zero percent set by DMSO-only wells
Summary of the method: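 Readings come from a cell-based beta-arrestin complementation format: CHO-K1 GPR32 stable cells (2,500/well) treated 90 min with compounds, then beta-Gal substrate added for 1 h before chemiluminescence imaging.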

UniProt O75388, sequence (O75388 whole entry, looked up): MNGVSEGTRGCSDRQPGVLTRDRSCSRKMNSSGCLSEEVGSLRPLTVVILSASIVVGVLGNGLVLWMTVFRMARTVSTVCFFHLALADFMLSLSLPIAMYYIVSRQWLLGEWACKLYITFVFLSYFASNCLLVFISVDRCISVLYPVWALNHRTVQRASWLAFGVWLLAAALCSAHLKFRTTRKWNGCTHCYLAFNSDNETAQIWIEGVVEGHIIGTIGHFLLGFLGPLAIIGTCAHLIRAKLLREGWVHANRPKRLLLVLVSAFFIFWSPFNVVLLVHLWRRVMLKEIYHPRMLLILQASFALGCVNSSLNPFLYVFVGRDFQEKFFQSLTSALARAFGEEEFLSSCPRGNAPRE

activation, active:
COc1ccc(-c2nc3ccccc3o2)cc1NC(=O)c1cccnc1 86.1%
CCOc1c(Cl)cc(CNc2ccc3[nH]c(=O)[nH]c3c2)cc1OC 85.3%

activation, inactive:
O=C(NCCc1cccs1)c1ccc(Cn2c(SCc3cccc(F)c3)nc3cccnc32)cc1 -19%
COc1ccc(NC(=O)Cn2cc(C(=O)c3ccc(C)c(C)c3)c(=O)c3cc(OC)ccc32)cc1 -6.8%
COc1ccc(-c2noc(N3CCC(C(=O)N4CCN(c5cccc(OC)c5)CC4)CC3)n2)cc1 1.17%
CCOc1ccccc1NC(=O)Cn1c(=O)oc2ccccc21 -11.9%
CCOC(=O)c1c(-c2ccccc2)oc2ccc(OCc3ccccc3Br)cc12 -1.34%
CCOc1cccc2sc(NC(=O)c3ccc(S(=O)(=O)N4CCCCC4C)cc3)nc12 (stereo not drawn) -7.1%
CCN(c1cccc(C)c1)S(=O)(=O)c1cc2c(cc1C)n(C)c(=O)c(=O)n2C -11.3%
Cc1nnc(NC(=O)c2nc(SC(C)C)ncc2Cl)s1 21.3%
CCOc1ccc(NC(=O)c2sc(-n3nc(C)c(Cc4ccc(Cl)cc4)c3C)nc2C)cc1 -1.85%
Clc1ccccc1Cn1c(-c2cccs2)nc2ccccc21 11.7%
O=C(c1cc(-c2ccc(Cl)cc2)n[nH]1)N1CCN(S(=O)(=O)c2ccc(Br)s2)CC1 4.17%
CCOC(=O)c1c(C)[nH]c(C)c1S(=O)(=O)N1CCN(c2cc(Cl)ccc2C)CC1 10.3%
CCOC(=O)c1c(-c2ccc(C)cc2)csc1NC(=O)c1cc(-c2ccc(OC)cc2)on1 19.5%
CCc1cccc(NC(=O)c2ccc3c(c2)N(Cc2cccc(Cl)c2)C(=O)c2ccccc2S3=O)c1 (stereo not drawn) -7.12%
Cc1cccc(N(C)C(=O)CCS(=O)(=O)c2ccc3c(c2)n(C)c(=O)c(=O)n3C)c1 -17.9%
Cc1cc(Nc2cccc(C(=O)O)c2)n2nc(C)nc2n1 3.33%
COc1ccc(CCNS(=O)(=O)c2c(C)nc3sc(C)cn3c2=O)cc1OC -3.3%
Cc1cccc(NC(=O)CN(C)S(=O)(=O)c2ccc3c(c2)c(=O)n(C)c(=O)n3C)c1C -3.16%
COc1ccc(CCNC(=O)c2ccc3c(c2)N=C(C)c2ccccc2S3)cc1OC -5.01%
CCCn1c2ccccc2c2cnn(CC(=O)NCCN(CC)CC)c(=O)c21 -17%
COc1ccc(NC(=O)NC(C)c2c(-n3cccc3)sc(C)c2C)cc1OC (stereo not drawn) -17.6%
CCCCOc1ccc(C(=O)Nc2cc(-c3cn4cccnc4n3)ccc2OC)cc1 -0.298%
Cc1ccc(CNC(=O)c2ccc3c(c2)c(C)c(C)n3Cc2ccc(Cl)cc2)o1 -29.7%
COc1cc(-c2cc(OC)c3c(C)oc(C)c3c(=O)c2)ccc1OC(=O)c1cccc(C)c1 -18.2%
Cc1nn(S(=O)(=O)c2ccc(F)cc2)c(C)c1S(=O)(=O)N1CCCCCC1 -5.61%
CCCc1cc(=O)[nH]c(SCc2nc(-c3ccc(OCC)cc3)no2)n1 -12.1%
Cc1ccc(-c2noc(-c3ccc(N4CCCC4)c([N+](=O)[O-])c3)n2)cc1 17.5%
CC(NN)c1ccccc1 (stereo not drawn) 5.43%
Cc1ccc(C(=O)Nc2c(C(=O)Nc3ccc(C)c(C)c3)sc3nc(C)cc(C)c23)cc1 -10.6%
CCOc1ccc(C2C(C(=O)Nc3ccc(OC)cc3)=C(C)Nc3nc(CCCO)nn32)cc1 (stereo not drawn) -14.1%
COc1ccc(NC(=O)C2CCN(c3cc(C)nc4c(-c5ccc(Cl)cc5)c(C)nn34)CC2)cc1 -6.17%
CCc1cccc(C)c1NC(=O)CSc1nc2ccncc2[nH]1 -2.95%
Cc1c(-c2ccccc2)c(=O)oc2c(CN3CCOCC3)c(O)ccc12 -7.51%
Cc1ccccc1CN1CCCN(CC(=O)Nc2ccc(F)cc2)S1(=O)=O 4.89%
Cc1cccc(NC(=O)c2cn(-c3ccccc3)nc2-c2ccccc2)c1C -0.972%
COc1cccc(NS(=O)(=O)c2ccc3[nH]cc(C(=O)NC(C)c4ccccc4)c(=O)c3c2)c1 (stereo not drawn) -22.7%
CCOC(=O)C1CCN(Cc2cn3c(-c4ccc(OC)cc4)nnc3s2)CC1 5.11%
Cc1ccc(OCCCCn2c(-c3ccc(Cl)cc3)nc3ccccc3c2=O)cc1 8.42%
CCOC(=O)c1c(C)oc2nc(C)nc(NCCc3ccc(Cl)cc3)c12 4.45%
Cc1ccc(NC(=O)Cn2c(=O)n(Cc3ccc4c(c3)OCO4)c(=O)c3oc4ccccc4c32)cc1C -13.7%
Cn1c(=O)oc2cc(S(=O)(=O)NC(Cc3ccccc3)C(=O)Nc3ccc(F)c(Cl)c3)ccc21 (stereo not drawn) 1.74%
Cc1ccc(/C=C/C(=O)Nc2ccc3nc(N4CCC(C)CC4)cc(C)c3c2)cc1 -7.53%
CO[C@@]12[C@H](COC(N)=O)C3=C(C(=O)C(C)=C(N)C3=O)N1C[C@@H]1N[C@@H]12 -21.5%
CCOc1ccc(C(=O)Nc2ccc3nc(N(CC)CC)cc(C)c3c2)cc1 22.5%
Cc1cc(N2CCC(C(=O)Nc3ccc(F)cc3F)CC2)n2nc(C)c(-c3ccc(Cl)cc3)c2n1 -5.48%
CCN(CC)c1ccc(NC(=O)CN2C(=O)c3cccnc3Sc3ccccc32)c(C)c1 -21.5%
COCCN1Cc2cccc(C(=O)Nc3ccc(Cl)cc3Cl)c2C1=O 15.3%
C[C@H](O)C(=O)Nc1c(I)c(C(=O)NC(CO)CO)c(I)c(C(=O)NC(CO)CO)c1I 1.16%
CCOc1cc(C2C(C(=O)OC)=C(C)NC3=C2C(=O)c2ccccc23)c(Br)cc1O (stereo not drawn) -50.5%
COc1ccc2oc(-c3ccc(C)c(NC(=O)CSc4ccc(Cl)cc4)c3)nc2c1 -6.15%
CC(=O)N1CCc2c(sc3c2c(=O)n(CCc2ccccc2)c(=O)n3Cc2cccc(C)c2)C1 -6.97%

From PubChem BioAssay AID1346428 (National Center for Advancing Translational Sciences (NCATS), 2018)
